Values quoted from earlier work in publication PMC11006913.
This is one part of the list.

Molecular target: HOXD13 N298S (Homo sapiens) (UniProt P35453)
Details: PBM; conditions not shown; double strand, one strand shown; scale: upbm affinity estimate (log intensity, higher = more binding, comparable within an allelic series)

Sequence	binding signal
GTTAATAA [8-mer GTTAATAA]	12.5
CTTCATGA [8-mer CTTCATGA]	10.8
CATAGTGA [8-mer CATAGTGA]	10.7
GTAAAGGA [8-mer GTAAAGGA]	10.9
GTCTCATA [8-mer GTCTCATA]	11.1
CATAAATC [8-mer CATAAATC]	12.5
TCTCGTAA [8-mer TCTCGTAA]	12.4
AAGTCATT [8-mer AAGTCATT]	11
GTTATCAA [8-mer GTTATCAA]	10.8
TATTAAAA [8-mer TATTAAAA]	12.5
CGAGTAAA [8-mer CGAGTAAA]	10.8
AGTTTACC [8-mer AGTTTACC]	10.8
ATCATTAA [8-mer ATCATTAA]	12.4

Molecular target: HOXD13 Q325K (Homo sapiens) (UniProt P35453)
Details: PBM; conditions not shown; double strand, one strand shown; scale: upbm affinity estimate (log intensity, higher = more binding, comparable within an allelic series)

Sequence	binding signal
CCGGATAA [8-mer CCGGATAA]	12.2
AGCATAAA [8-mer AGCATAAA]	12.6
ATTTATCC [8-mer ATTTATCC]	13
CTTTATGC [8-mer CTTTATGC]	12.3
TGGATAAA [8-mer TGGATAAA]	12.6
GTGTAAAA [8-mer GTGTAAAA]	12.3
GGCATTAA [8-mer GGCATTAA]	12.4
CTTTATCC [8-mer CTTTATCC]	12.6
AGGGATAA [8-mer AGGGATAA]	12.2
ATTATACC [8-mer ATTATACC]	12.2
GGAATAAA [8-mer GGAATAAA]	12.7
GTTATCAA [8-mer GTTATCAA]	10.7
GGTTAAAC [8-mer GGTTAAAC]	11.4
CGTTTATC [8-mer CGTTTATC]	12.2
CGAGTAAA [8-mer CGAGTAAA]	11
GGGCATAA [8-mer GGGCATAA]	12.3
ATTAATGC [8-mer ATTAATGC]	12.3
GGATAAAC [8-mer GGATAAAC]	13

Molecular target: HOXD13 Q325R (Homo sapiens) (UniProt P35453)
Details: PBM; conditions not shown; double strand, one strand shown; scale: upbm affinity estimate (log intensity, higher = more binding, comparable within an allelic series)

Sequence	binding signal
GTTATCAA [8-mer GTTATCAA]	10.8
TATTAAAA [8-mer TATTAAAA]	12.1
AGTTTACC [8-mer AGTTTACC]	10.6

Molecular target: HOXD13 S316C (Homo sapiens) (UniProt P35453)
Details: PBM; conditions not shown; double strand, one strand shown; scale: upbm affinity estimate (log intensity, higher = more binding, comparable within an allelic series)

Sequence	binding signal
CATAGTGA [8-mer CATAGTGA]	10.6
GTCTCATA [8-mer GTCTCATA]	10.8
AAGTCATT [8-mer AAGTCATT]	10.6
GTTATCAA [8-mer GTTATCAA]	10.6
